Inconclusive means that the source gave no clear call. Such entries were picked first, then a sample of the others. For some of these results: Where the call is inconclusive, the potency comes from a doubtful curve fit. Activity calls are given as the source filed them. Unless noted, the call rests on the fitted dose curve; in most records, active means well fitted curve in the direction sought with a large enough effect; inconclusive means small, poorly fitted or top-dose-only effect, or another doubt; inactive means no such curve, though single readings can be large; an effect the other way counts as inactive or inconclusive.
Key:
[1] = P-glycoprotein substrates identified in KB-8-5-11 adenocarcinoma cell line, qHTS therapeutic library screen (AID 1346987); further: nearly all actives have a fitted effect of over 65% in size; further: potency means the concentration at half of the fitted maximal effect
How it was run: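 P-gp-mediated resistance screen: KB-8-5-11 cells treated 72 h with compounds in dose-response. CellTiter-Glo viability.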

KB-3-1 = assay: Cytotoxic Profiling of Annotated Libraries Using Quantitative High-Throughput Screening (AID 1296008); conditions: Five cell lines viability, CellTiter-Glo ATP luminescence, 48-72 h; max response: stronger effect = lower value; further: nearly all actives have a fitted effect of over 60% in size; further: potency means the concentration at half of the fitted maximal effect; on max response: on the % scale 0 is the no-effect control and ±100 the full control effect
How it was run: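 Compounds were pin-transferred onto cells and incubated 48 or 72 hr at 37 degree Celsius, 95% humidity. CellTiter-Glo was added, plates sat 10 min at room temperature, then ATP-coupled luminescence was imaged as the viability read-out.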

C33A = assay: Primary qHTS to identify gynecologic anti-cancer compounds using libraries of approved drugs and bioactive compounds (AID 1345084); conditions: Gynecologic cancer cell panel viability, ATPlite luminescence, 48 h; series mostly up to 57.5 µM; further: nearly all actives have a fitted effect of over 55% in size; further: potency means the concentration at half of the fitted maximal effect; on activity change, negative = cytotoxicity: on the % scale 0 is the no-effect control and ±100 the full control effect
How it was run: (§1)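 48 h compound exposure at 37 C, 5% CO2; five-point qHTS. ATPlite luminescence readout of cell ATP.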

CAOV3 = assay: as above; conditions: Gynecologic cancer cell panel viability, ATPlite luminescence, 48 h; activity change, negative = cytotoxicity: at 57.5 µM (top of the series)
How it was run: as §1

CASKI = assay: as above; conditions: Gynecologic cancer cell panel viability, ATPlite luminescence, 48 h; series mostly up to 57.5 µM
How it was run: as §1

Es-2 = assay: as above; conditions: Gynecologic cancer cell panel viability, ATPlite luminescence, 48 h; series mostly up to 57.5 µM
How it was run: as §1

HeLa = assay: as above; conditions: Gynecologic cancer cell panel viability, ATPlite luminescence, 48 h; activity change, negative = cytotoxicity: at 57.5 µM (top of the series)
How it was run: as §1

Hek293T = assay: as above; conditions: Gynecologic cancer cell panel viability, ATPlite luminescence, 48 h, control line for the selectivity index; activity change, negative = cytotoxicity: at 57.5 µM (top of the series) unless noted
How it was run: as §1

OV90 = assay: as above; conditions: Gynecologic cancer cell panel viability, ATPlite luminescence, 48 h; series mostly up to 57.5 µM
How it was run: as §1

PA-1 = assay: as above; conditions: Gynecologic cancer cell panel viability, ATPlite luminescence, 48 h; series mostly up to 57.5 µM
How it was run: as §1

SKOV3 = assay: as above; conditions: Gynecologic cancer cell panel viability, ATPlite luminescence, 48 h; series mostly up to 57.5 µM
How it was run: as §1

Tov112D = assay: as above; conditions: Gynecologic cancer cell panel viability, ATPlite luminescence, 48 h; series mostly up to 57.5 µM
How it was run: as §1

[2] = Primary qHTS for inhibitors of nuclear receptor binding SET domain protein 2 (NSD2) in an RCH-ACV wild type WT cells (2C) (AID 1645877); conditions: activity change, negative = cell killing: at 44.9 µM (top of the series) unless noted; further: potency means the concentration at half of the fitted maximal effect; nearly all actives have a fitted effect of over 70% in size
[3] = Primary redox qHTS assay for identification of artifact compounds. (AID 1845223); conditions: Amplex Red/HRP redox cycling with DTT, fluorescence; redox activity (% of DA3003): at 53.8 µM (top of the series); further: potency means the concentration at half of the fitted maximal effect
How it was run: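 Amplex Red (25 uM) and HRP (250 mU/mL) in HBSS, with compounds for 15 min, then 250 uM DTT for 30 min, room temperature, dark. Fluorescence 525/598 nm read; normalized to DMSO and 10 uM DA3003; Hill fit.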

[4] = test system: Zika virus NS2B-NS3 protease (unlinked complex); assay: Primary screen GU Rhodamine qHTS for Zika virus inhibitors: Unlinked NS2B-NS3 protease assay (AID 1347159); further: on the % scale 0 is the no-effect control and ±100 the full control effect; nearly all actives have a fitted effect of over 60% in size
How it was run: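 Percent inhibition derives from the 15-min fluorescence change (ex 480, em 540 nm), normalized to no-enzyme and no-inhibitor wells. Reactions contained 25 nM NS2B-NS3 complex and 1.5 microM substrate in 10 mM Tris-HCl pH 8.0.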

[5] = Primary qHTS for inhibitors of nuclear receptor binding SET domain protein 2 (NSD2) in an isogenic RCH-ACV NSD2 p.E1099K mutant (9B) (AID 1645876); further: nearly all actives have a fitted effect of over 70% in size; further: potency means the concentration at half of the fitted maximal effect
JEG-3 = assay: Primary qHTS to identify gynecologic anti-cancer compounds using libraries of approved drugs and bioactive compounds (AID 1345084); conditions: Gynecologic cancer cell panel viability, ATPlite luminescence, 48 h; series mostly up to 57.5 µM; further: nearly all actives have a fitted effect of over 55% in size; further: potency means the concentration at half of the fitted maximal effect; on activity change, negative = cytotoxicity: on the % scale 0 is the no-effect control and ±100 the full control effect
How it was run: as §1

Tov-21-G = assay: as above; conditions: Gynecologic cancer cell panel viability, ATPlite luminescence, 48 h; activity change, negative = cytotoxicity: at 57.5 µM (top of the series) unless noted
How it was run: as §1

[6] = qHTS of pediatric cancer cell lines to identify multiple opportunities for drug repurposing: Primary screen for NB1643 cells (AID 1347099);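 further: plate controls were DMSO neutral control for no effect and bortezomib positive control for full effect; nearly all actives have a fitted effect of over 50% in size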
How it was run: (§2)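 Viability was measured as metabolically active cells after 48 hours of treatment, read by CellTiter-Glo luminescence. Compounds were tested at multiple final concentrations, giving concentration-response curves.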

[7] = qHTS of pediatric cancer cell lines to identify multiple opportunities for drug repurposing: Primary screen for BT-12 cells (AID 1347101);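 further: plate controls were DMSO for no effect and bortezomib positive control for full effect; nearly all actives have a fitted effect of over 25% in size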
How it was run: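 Cells (500-1,000/well) rested 5 h, then received compounds for 48 h; metabolically active cells were measured by CellTiter-Glo luminescence. Final concentrations spanned up to 46 µM (MIPE, 11-point) or 0.59 nM-46 µM (NPC, 8-point) in primary screens, 11-point in follow-ups.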

[8] = qHTS of pediatric cancer cell lines to identify multiple opportunities for drug repurposing: Primary screen for MG 63 (6-TG R) cells (AID 1347105); conditions: MG 63 (6-TG R) viability, CellTiter-Glo, 48 h; activity change, negative = cytotoxic: at 46 µM (top of the series); further: on the % scale 0 is the no-effect control and ±100 the full control effect; nearly all actives have a fitted effect of over 50% in size
How it was run: as §2

[9] = Primary qHTS for small molecule stabilizers of the endoplasmic reticulum resident proteome: Secreted ER Calcium Modulated Protein (SERCaMP) assay (AID 1508630); conditions: SH-SY5Y GLuc-SERCaMP (Gaussia luciferase released on ER calcium loss) secretion, thapsigargin, luminescence; activity change, negative = inhibition: at 38.4 µM (top of the series) unless noted; further: potency means the concentration at half of the fitted maximal effect
How it was run: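 GLuc-SERCaMP-expressing SH-SY5Y cells, pretreated 16 h with compound, are challenged with thapsigargin to empty ER calcium stores; after 4 h, coelenterazine is added directly to the medium and luminescence is imaged.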

[10] = molecular target: Cytochrome P450 2D6 (Homo sapiens) (UniProt P10635); assay: Cytochrome P450 family 2 subfamily D member 6 (CYP2D6) small molecule antagonists: luciferase biochemical (cell-free) qHTS assay (AID 1645840; active means well fitted curve in the direction sought with a large enough effect in the repeat runs; inconclusive means weak or mixed curves; inactive means no such curve, though single readings can be large; an effect the other way counts as inactive or inconclusive; further: nearly all actives have a fitted effect of over 55% in size; further: potency means the concentration at half of the fitted maximal effect; on activity change, negative = inhibition: on the % scale 0 is the no-effect control and ±100 the full control effect)
How it was run: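 P450-Glo luminescent screen: recombinant CYP2D6 enzyme–proluciferin substrate mix preincubated with compound 10 min at room temperature, then NADPH regeneration added for 1 h at room temperature. Detection reagent added for 20 min; luciferin light read as relative luminescence units.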

[11] = molecular target: Cytochrome P450 2C9 (Homo sapiens) (UniProt P11712); assay: Cytochrome P450 family 2 subfamily C member 9 (CYP2C9) small molecule antagonists: luciferase biochemical (cell-free) qHTS assay (AID 1645842; active means well fitted curve in the direction sought with a large enough effect in the repeat runs; inconclusive means weak or mixed curves; inactive means no such curve, though single readings can be large; an effect the other way counts as inactive or inconclusive; further: potency means the concentration at half of the fitted maximal effect; nearly all actives have a fitted effect of over 55% in size)
How it was run: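 Luminescence, after 20 min with luciferin detection reagent, reflected CYP2C9 turnover during a 1 h NADPH-driven reaction at 37C. Enzyme-substrate mix contained 0.4% bovine serum albumin and was preincubated with compound 10 min at room temperature.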

WaGa = assay: qHTS assay to identify novel small-molecules to repurpose for Merkel cell carcinoma treatment (AID 1296009); conditions: MCC and control cell lines, CellTiter-Glo viability, 72 h; series mostly up to 46 µM; further: on the % scale 0 is the no-effect control and ±100 the full control effect; nearly all actives have a fitted effect of over 60% in size
How it was run: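 Cells exposed to NPC (8-point) and MIPE (11-point) compound dilutions for 72 hr at 37 degree celsius; viability read by CellTiter-Glo luminescence, normalized to no-cell and DMSO in-plate controls.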

[12] = Primary fluorescence-based thiol-reactive (MSTI) qHTS assay for identification of artifact compounds. (AID 1845221);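 further: potency means the concentration at half of the fitted maximal effect; thiol-reactive compounds lower the probe fluorescence signal; nearly all actives have a fitted effect of over 65% in size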
How it was run: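 First, 4 uM MSTI in 2% DMSO/PBS pH 7.4 was dispensed; next, compounds were added; then plates sat 1 h at room temperature without light. Finally, emission at 598 nm was recorded.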

[13] = qHTS of pediatric cancer cell lines to identify multiple opportunities for drug repurposing: Primary screen for U-2 OS cells (AID 1347096);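 further: plate controls were DMSO wells for no effect and bortezomib positive control wells for full effect; nearly all actives have a fitted effect of over 50% in size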
How it was run: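 Cells (500-1,000/well) in growth media were settled 5 h at 37 degrees C, then given compounds for 48 h. Viability was read as CellTiter-Glo luminescence. Primary runs used MIPE at 11 points (0.78 nM-46 µM) and NPC at 8 points (0.59 nM-46 µM); follow-ups used 11 points.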

[14] = molecular target: Cytochrome P450 3A4 (Homo sapiens) (UniProt P08684); assay: Cytochrome P450 family 3 subfamily A member 4 (CYP3A4) small molecule antagonists: luciferase qHTS assay (AID 1645841; active means well fitted curve in the direction sought with a large enough effect in the repeat runs; inconclusive means weak or mixed curves; inactive means no such curve, though single readings can be large; an effect the other way counts as inactive or inconclusive; further: potency means the concentration at half of the fitted maximal effect; nearly all actives have a fitted effect of over 45% in size)
How it was run: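 P450-Glo CYP3A4 enzyme with proluciferin substrate was preincubated with DMSO-dissolved compounds for 10 min at room temperature. NADPH regeneration solution started a 1 h reaction. Detection reagent stopped it, and luminescence was read after 20 min.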
Tags describe the fitted curve by direction and shape.

Sequence of UniProt P10635 (P10635 whole entry, looked up): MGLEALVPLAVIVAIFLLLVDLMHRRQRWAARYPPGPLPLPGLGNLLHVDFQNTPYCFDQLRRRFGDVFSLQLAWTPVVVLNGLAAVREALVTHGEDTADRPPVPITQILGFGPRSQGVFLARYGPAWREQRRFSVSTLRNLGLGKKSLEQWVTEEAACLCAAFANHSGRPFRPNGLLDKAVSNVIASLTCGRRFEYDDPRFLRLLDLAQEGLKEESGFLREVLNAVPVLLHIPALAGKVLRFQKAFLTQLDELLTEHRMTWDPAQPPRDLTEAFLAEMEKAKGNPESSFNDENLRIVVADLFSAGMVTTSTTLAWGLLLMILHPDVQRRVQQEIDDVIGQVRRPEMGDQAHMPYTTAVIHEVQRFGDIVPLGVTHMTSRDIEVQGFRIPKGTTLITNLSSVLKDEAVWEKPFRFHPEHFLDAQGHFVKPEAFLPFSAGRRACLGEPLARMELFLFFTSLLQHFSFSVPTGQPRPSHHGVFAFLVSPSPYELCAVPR
Sequence of UniProt P11712 (P11712 whole entry, looked up): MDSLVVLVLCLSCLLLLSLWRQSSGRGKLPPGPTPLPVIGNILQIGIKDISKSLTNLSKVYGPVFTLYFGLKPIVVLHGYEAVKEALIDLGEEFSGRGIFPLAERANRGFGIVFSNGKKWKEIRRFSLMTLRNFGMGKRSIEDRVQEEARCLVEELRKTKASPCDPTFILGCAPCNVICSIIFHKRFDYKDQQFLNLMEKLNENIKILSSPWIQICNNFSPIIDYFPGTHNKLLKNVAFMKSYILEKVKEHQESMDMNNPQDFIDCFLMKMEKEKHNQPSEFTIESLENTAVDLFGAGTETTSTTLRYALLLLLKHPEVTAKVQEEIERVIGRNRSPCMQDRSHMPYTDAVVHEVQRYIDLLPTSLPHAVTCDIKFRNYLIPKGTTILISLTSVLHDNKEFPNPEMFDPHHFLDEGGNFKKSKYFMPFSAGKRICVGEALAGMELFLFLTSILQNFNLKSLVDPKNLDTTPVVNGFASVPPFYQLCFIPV
Sequence of UniProt P08684 (P08684 whole entry, looked up): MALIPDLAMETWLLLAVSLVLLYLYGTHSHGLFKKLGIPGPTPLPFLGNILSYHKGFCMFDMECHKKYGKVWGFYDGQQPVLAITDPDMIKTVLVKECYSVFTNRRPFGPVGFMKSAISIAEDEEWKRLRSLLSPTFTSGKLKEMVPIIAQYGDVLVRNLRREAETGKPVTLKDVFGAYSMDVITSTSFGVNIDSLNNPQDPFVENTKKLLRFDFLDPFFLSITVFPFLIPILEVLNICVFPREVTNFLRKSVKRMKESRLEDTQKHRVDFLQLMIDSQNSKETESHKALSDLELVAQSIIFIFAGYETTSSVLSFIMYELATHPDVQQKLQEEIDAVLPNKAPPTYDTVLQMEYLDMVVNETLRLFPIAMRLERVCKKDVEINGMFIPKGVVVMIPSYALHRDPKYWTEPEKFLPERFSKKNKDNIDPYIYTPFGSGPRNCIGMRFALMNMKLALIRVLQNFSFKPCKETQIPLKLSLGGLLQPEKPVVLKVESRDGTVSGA

CN(C)C/C=C/C(=O)Nc1cc2c(Nc3ccc(F)c(Cl)c3)ncnc2cc1OC1CCOC1 (stereo not drawn)
inconclusive: Potency (CASKI) 22.4 µM [cytotoxic, partial curve, poor fit] | Potency (Es-2) 35.5 µM [cytotoxic, single point] | Potency (HeLa) 35.5 µM [cytotoxic, single point] | Potency (Hek293T) 28.2 µM [cytotoxic, single point] | Potency (OV90) 28.2 µM [cytotoxic, single point] | Potency (PA-1) 39.8 µM [cytotoxic, single point] | Potency (SKOV3) 7.94 µM [cytotoxic, full curve, poor fit] | Potency (Tov112D) 25.1 µM [cytotoxic, single point]
active: Potency [1] 14.6 µM | Potency (KB-3-1) 5.17 µM | Potency (C33A) 20 µM | Potency (CAOV3) 10 µM

CCc1c[nH]c2ncnc(N3CC[C@](N)(CNC(=O)c4ccc(F)cc4F)C3)c12
inconclusive: Potency [3] 23.8 µM [activator, partial curve] | Potency (KB-3-1) 29.1 µM [inhibitor, single point] | Potency (C33A) 3.98 µM [cytotoxic, full curve] | Potency (OV90) 5.62 µM [cytotoxic, partial curve] | Potency (PA-1) 6.31 µM [cytotoxic, full curve, poor fit] | Potency (SKOV3) 0.282 µM [cytotoxic, full curve, poor fit]
active: Potency [2] 3.65 µM | Potency (Hek293T) 1.41 µM

C=C[C@@]1(C)C=C2C(=O)C(O)=C3[C@](C)(C(=O)O)CC[C@@H]4C[C@]34[C@]2(O)C(=O)C1
inconclusive: Potency [3] 14.7 µM [activator, partial curve, poor fit] | Potency (KB-3-1) 20.2 µM [inhibitor, single point] | Potency (C33A) 28.2 µM [cytotoxic, single point] | Potency (CAOV3) 12.6 µM [cytotoxic, partial curve, poor fit] | Potency (CASKI) 20 µM [cytotoxic, single point] | Potency (JEG-3) 10 µM [cytotoxic, partial curve] | Potency (OV90) 10 µM [cytotoxic, partial curve] | Potency (SKOV3) 22.4 µM [cytotoxic, single point] | Potency (Tov112D) 12.6 µM [cytotoxic, single point]
active: Potency [1] 10.1 µM | Potency [5] 10.1 µM | Potency (Es-2) 10 µM | Potency (Hek293T) 11.2 µM | Potency (Tov-21-G) 11.2 µM
inactive: Potency [4]

CC(C)(C)C(=O)OCOC(=O)C1N2C(=O)CC2S(=O)(=O)C1(C)C (stereo not drawn)
inconclusive: Potency [9] 11.2 µM [inhibitor, single point] | Potency [11] 43.6 µM [inhibitor, partial curve, poor fit]
inactive: Potency [6] | Potency [7] | Potency [8] | Potency [10] | max response (KB-3-1) -11.8% | Potency (WaGa)

COc1ccc(CCc2nc3c(C)c(-c4c(C)noc4C)c(C)cc3n2CCN2CCOCC2)cc1
inconclusive: Potency [1] 23.1 µM [inhibitor, single point] | Potency [3] 0.752 µM [activator, full curve] | Potency (KB-3-1) 23.1 µM [inhibitor, single point] | Potency (C33A) 39.8 µM [cytotoxic, single point] | Potency (CAOV3) 25.1 µM [cytotoxic, partial curve, poor fit] | Potency (CASKI) 39.8 µM [cytotoxic, single point] | Potency (Es-2) 31.6 µM [cytotoxic, partial curve, poor fit] | Potency (Hek293T) 22.4 µM [cytotoxic, partial curve] | Potency (JEG-3) 39.8 µM [cytotoxic, single point] | Potency (PA-1) 20 µM [cytotoxic, single point] | Potency (SKOV3) 20 µM [cytotoxic, single point] | Potency (Tov-21-G) 31.6 µM [cytotoxic, partial curve, poor fit] | Potency (Tov112D) 39.8 µM [cytotoxic, single point]
active: Potency [2] 18.3 µM

CCOC(=O)c1c(C)nn(-c2cccc([N+](=O)[O-])c2)c1C
active: Potency [10] 8.49 µM | Potency [11] 1.07 µM
inconclusive: Potency [12] 5.97 µM [inhibitor, partial curve]
inactive: max response (KB-3-1) 0.772% | Potency (CAOV3) | Potency (CASKI)

CN[C@@H]1[C@H](O)[C@H](NC)[C@H]2O[C@@]3(O)C(=O)C[C@@H](C)O[C@H]3O[C@@H]2[C@H]1O
inconclusive: Potency [10] 19.5 µM [inhibitor, partial curve, poor fit] | Potency [14] 38.9 µM [falling, single point]
inactive: Potency [1] | Potency [13] | Potency [6] | Potency [7] | Potency [5] | max response (KB-3-1) 16.3% | Potency (CASKI) | Potency (WaGa)
